The full ranking holds about 81,000 sequences; the median of “one-hybrid fitness for binding NBS DNA” is about -0.1, and the highest 2% start at about 0.36. This is one part of the list.
B1: Caulobacter ParB omega fusion; a variant is named by its letters at X, in order, B8GW30 (parent)
chain: MESVVVGEPGMSEGRRGLGRGLSALLGEVDAAPAQAPGEQLGGSREAPIEILQRNPDQPRRTFREEDLEDLSNSIREKGVLQPILVRPSPDTAGEYQIVAGERAWRAAQRAGLKTVPIMVRELDDLAVLEIGIIENVQRADLNVLEEALSYKVLMEKFERTQENIAQTIGKSXSHVANXMRLLXLPDEVQSYLVSGELTAXHARAIAAAADPVALAKQIIEGGLSVRETEALARKAPNLSAGKSKGGRPPRVKDTDTQALESDLSSVLGLDVSIDHRGSTGTLTITYATLEQLDDLCNRLTRGI

Variants of: B1
Experiment: one-hybrid fitness for binding NBS DNA (the Noc-binding site; scaled: cognate 1, non-cognate 0); higher = stronger binding
Settings: with NBS DNA site
Outline: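 Bacterial one-hybrid selection in E. coli USO rpoZ- hisB- pyrF- with a HIS3 reporter carrying the site 19 bp from the promoter, screening Caulobacter ParB libraries with four specificity codons randomised (NNS). Cells grew 48 hours at 37°C on M9-minus-histidine plus 0.1 mM IPTG and 5 mM 3-AT. Plasmids before and after selection were Illumina-sequenced, three replicate libraries pooled, and variants under 10 reads dropped. Fitness is the log change in variant-to-wild-type read ratio, rescaled to cognate 1, non-cognate 0.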

Row | Variant | one-hybrid fitness for binding NBS DNA
1 | SHDS | ≤ 0.2
2 | RIRA | 0.304
3 | HDSK | ≤ 0.2
4 | ARTS | ≤ 0.2
5 | VERI | ≤ 0.2
6 | SSAD | ≤ 0.2
7 | VRAL | ≤ 0.2
8 | VVVR | ≤ 0.2
9 | MFCR | ≤ 0.2
10 | KRGA | 0.227
11 | AKNR | ≤ 0.2
12 | HADC | ≤ 0.2
13 | IIRT | ≤ 0.2
14 | WDCS | ≤ 0.2
15 | TLHW | ≤ 0.2
16 | GYKK | ≤ 0.2
17 | IWSY | ≤ 0.2
18 | AVLV | ≤ 0.2
19 | QYCG | ≤ 0.2
20 | PYNR | ≤ 0.2
21 | EITS | ≤ 0.2
22 | DMST | ≤ 0.2
23 | AEWC | ≤ 0.2
24 | GWWR | ≤ 0.2
25 | QLHK | ≤ 0.2

Row | Variant | one-hybrid fitness for binding NBS DNA
26 | QKWM | ≤ 0.2
27 | QQMD | ≤ 0.2
28 | MKRS | ≤ 0.2
29 | SKAF | ≤ 0.2
30 | WGPQ | ≤ 0.2
31 | KVTS | ≤ 0.2
32 | MTNG | ≤ 0.2
33 | AMEG | ≤ 0.2
34 | KLCI | ≤ 0.2
35 | QYPL | ≤ 0.2
36 | HLIG | ≤ 0.2
37 | EYNC | ≤ 0.2
38 | RMHR | 0.503
39 | TIED | ≤ 0.2
40 | EQFG | ≤ 0.2
41 | RCHK | ≤ 0.2
42 | RNCF | ≤ 0.2
43 | PVQM | ≤ 0.2
44 | YYLP | ≤ 0.2
45 | VGLT | ≤ 0.2
46 | VHLV | ≤ 0.2
47 | VNMR | ≤ 0.2
48 | PDAH | ≤ 0.2
49 | LTAS | ≤ 0.2
50 | RCQP | ≤ 0.2

Row | Variant | one-hybrid fitness for binding NBS DNA
51 | MADG | ≤ 0.2
52 | KLTT | ≤ 0.2
53 | RCMS | 0.412
54 | NIIR | ≤ 0.2
55 | VVNH | ≤ 0.2
56 | LGHR | ≤ 0.2
57 | TWMK | ≤ 0.2
58 | KLKH | ≤ 0.2
59 | PCLR | ≤ 0.2
60 | RLRQ | ≤ 0.2
61 | QNNT | 0.201
62 | NPHA | ≤ 0.2
63 | AHCR | ≤ 0.2
64 | RYCQ | ≤ 0.2
65 | AARH | ≤ 0.2
66 | EDVW | ≤ 0.2
67 | NTHQ | ≤ 0.2
68 | RSEG | ≤ 0.2
69 | AMKF | ≤ 0.2
70 | AKNC | ≤ 0.2
71 | MHSR | ≤ 0.2
72 | AKED | ≤ 0.2
73 | IQSH | ≤ 0.2
74 | RWKH | ≤ 0.2
75 | IRKD | ≤ 0.2

Row | Variant | one-hybrid fitness for binding NBS DNA
76 | ASTP | ≤ 0.2
77 | PDNY | ≤ 0.2
78 | RHDF | ≤ 0.2
79 | DHSA | ≤ 0.2
80 | YDLF | ≤ 0.2
81 | IVRA | ≤ 0.2
82 | PRSQ | ≤ 0.2
83 | SRQT | ≤ 0.2
84 | ITNR | ≤ 0.2
85 | KWFS | ≤ 0.2
86 | AAQM | ≤ 0.2
87 | MTGD | ≤ 0.2
88 | QYEA | ≤ 0.2
89 | ALSE | ≤ 0.2
90 | VVID | ≤ 0.2
91 | NGTK | ≤ 0.2
92 | PQLN | ≤ 0.2
93 | TLLF | ≤ 0.2
94 | EKSI | ≤ 0.2
95 | RFKW | ≤ 0.2
96 | CKDV | ≤ 0.2
97 | DFRK | ≤ 0.2
98 | TWLL | ≤ 0.2
99 | SLSF | ≤ 0.2
100 | RVRG | ≤ 0.2

Row | Variant | one-hybrid fitness for binding NBS DNA
101 | TNYR | ≤ 0.2
102 | AYRQ | ≤ 0.2
103 | YCSH | ≤ 0.2
104 | SWEM | ≤ 0.2
105 | PPHF | ≤ 0.2
106 | YHGS | ≤ 0.2
107 | KCKL | ≤ 0.2
108 | NTAQ | ≤ 0.2
109 | SFIS | ≤ 0.2
110 | VPQE | ≤ 0.2
111 | VNYR | ≤ 0.2
112 | YEQD | ≤ 0.2
113 | IYSR | ≤ 0.2
114 | SPRN | ≤ 0.2
115 | QPCF | ≤ 0.2
116 | GYGG | ≤ 0.2
117 | FCLR | ≤ 0.2
118 | PFHA | ≤ 0.2
119 | GEPN | ≤ 0.2
120 | QAQN | ≤ 0.2
121 | RMSG | ≤ 0.2
122 | WDVM | ≤ 0.2
123 | SHNM | ≤ 0.2
124 | GHDR | ≤ 0.2
125 | NNFI | ≤ 0.2

Row | Variant | one-hybrid fitness for binding NBS DNA
126 | RKDM | ≤ 0.2
127 | AKWF | ≤ 0.2
128 | WHYS | ≤ 0.2
129 | VFSA | ≤ 0.2
130 | IHGC | ≤ 0.2
131 | HTFR | ≤ 0.2
132 | CVNF | ≤ 0.2
133 | NFYC | ≤ 0.2
134 | WHMS | ≤ 0.2
135 | PTIM | ≤ 0.2
136 | VWPG | ≤ 0.2
137 | EHDE | ≤ 0.2
138 | KMVV | ≤ 0.2
139 | CLRI | ≤ 0.2
140 | CLYA | ≤ 0.2
141 | ATEL | ≤ 0.2
142 | YSVS | ≤ 0.2
143 | PAKF | ≤ 0.2
144 | QIGG | ≤ 0.2
145 | HRKT | 0.332
146 | LGSS | ≤ 0.2
147 | PCAI | ≤ 0.2
148 | PPVP | ≤ 0.2
149 | RELV | ≤ 0.2
150 | QVIW | ≤ 0.2

Row | Variant | one-hybrid fitness for binding NBS DNA
151 | TLHC | ≤ 0.2
152 | RKET | 0.528
153 | NSNP | ≤ 0.2
154 | RTFK | ≤ 0.2
155 | ISQG | ≤ 0.2
156 | TSFR | ≤ 0.2
157 | EDPR | ≤ 0.2
158 | HQTA | ≤ 0.2
159 | FHTM | ≤ 0.2
160 | WSAC | ≤ 0.2
161 | STTT | ≤ 0.2
162 | MFKY | ≤ 0.2
163 | GAVG | ≤ 0.2
164 | PLPW | ≤ 0.2
165 | TESG | ≤ 0.2
166 | HWAI | ≤ 0.2
167 | AKAC | ≤ 0.2
168 | TPQG | ≤ 0.2
169 | KPVF | ≤ 0.2
170 | PHFH | ≤ 0.2
171 | GITY | ≤ 0.2
172 | VHPY | ≤ 0.2
173 | QCSG | ≤ 0.2
174 | IMLI | ≤ 0.2
175 | SYKC | ≤ 0.2

Row | Variant | one-hybrid fitness for binding NBS DNA
176 | IPDS | ≤ 0.2
177 | WTRA | ≤ 0.2
178 | APAG | ≤ 0.2
179 | YTQY | ≤ 0.2
180 | AKRC | ≤ 0.2
181 | TIGR | ≤ 0.2
182 | NFSY | ≤ 0.2
183 | IMAY | ≤ 0.2
184 | TGPE | ≤ 0.2
185 | FYMS | ≤ 0.2
186 | QGPW | ≤ 0.2
187 | TLRA | ≤ 0.2
188 | QMWV | ≤ 0.2
189 | TCLP | ≤ 0.2
190 | EMQG | ≤ 0.2
191 | DNRH | ≤ 0.2
192 | RGLC | ≤ 0.2
193 | MTCS | ≤ 0.2
194 | AGRF | ≤ 0.2
195 | LAYQ | ≤ 0.2
